The assay concerns the target human class B J-protein DNAJB1 (JB1), wild type (human), P25685. Description: SEC. To be noted: remark: other sources report otherwise.

As a reminder, the stoichiometry N is the number of molecules, sites or subunits per partner or assembly.

B1: human class B J-protein DNAJB1 (JB1), wild type (natural protein)
chain: MGKDYYQTLGLARGASDEEIKRAYRRQALRYHPDKNKEPGAEEKFKEIAEAYDVLSDPRKREIFDRYGEEGLKGSGPSGGSGGGANGTSFSYTFHGDPHAMFAEFFGGRNPFDTFFGQRNGEEGMDIDDPFSGFPMGMGGFTNVNFGRSRSAQEPARKKQ[skipping about 150 residues]PERIPQTSRTVLEQVLPI
In turn, B1 returned a stoichiometry N of 2.

The values are drawn from publication PMC4830470.
